PMC9831603
These are yes or no findings as the source states them, for the method shown. Binding seen in cells or lysates may run through a third protein. Some binding calls cover weakened binding; strength is not graded here.

Protein sequences, listed by entry. Tags and fused reporters are not part of them. Lines headed by an entry give the natural chain unless they say otherwise; changes in a name come on top. Chains listed by the source or under a name are the forms on record and can include a tag or linker.
UniProt P36405: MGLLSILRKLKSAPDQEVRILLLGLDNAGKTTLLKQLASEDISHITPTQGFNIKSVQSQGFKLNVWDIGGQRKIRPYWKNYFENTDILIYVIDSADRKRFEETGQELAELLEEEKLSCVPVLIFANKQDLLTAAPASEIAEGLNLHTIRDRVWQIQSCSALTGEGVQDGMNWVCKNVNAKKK
Arl3-D67V-FLAG (P36405, form named): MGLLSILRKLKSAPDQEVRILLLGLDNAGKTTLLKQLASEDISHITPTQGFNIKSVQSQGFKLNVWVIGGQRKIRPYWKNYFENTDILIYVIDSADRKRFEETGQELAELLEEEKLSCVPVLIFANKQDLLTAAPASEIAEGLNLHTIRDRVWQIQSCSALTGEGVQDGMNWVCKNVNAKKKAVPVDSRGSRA
Arl3-D129N-FLAG (P36405, form named): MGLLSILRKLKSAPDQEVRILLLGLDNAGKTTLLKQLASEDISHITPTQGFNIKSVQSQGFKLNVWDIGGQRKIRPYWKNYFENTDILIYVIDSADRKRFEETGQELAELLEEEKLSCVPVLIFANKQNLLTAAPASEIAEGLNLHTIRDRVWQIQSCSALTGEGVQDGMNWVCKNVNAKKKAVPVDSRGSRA
Arl3-Q71L-FLAG (P36405, form named): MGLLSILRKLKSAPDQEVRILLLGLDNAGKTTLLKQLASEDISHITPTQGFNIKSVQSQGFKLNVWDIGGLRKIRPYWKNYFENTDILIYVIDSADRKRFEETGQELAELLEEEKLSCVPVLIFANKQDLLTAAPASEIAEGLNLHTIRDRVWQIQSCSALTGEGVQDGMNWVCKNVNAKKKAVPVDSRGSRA
Arl3-T31N-FLAG (P36405, form named): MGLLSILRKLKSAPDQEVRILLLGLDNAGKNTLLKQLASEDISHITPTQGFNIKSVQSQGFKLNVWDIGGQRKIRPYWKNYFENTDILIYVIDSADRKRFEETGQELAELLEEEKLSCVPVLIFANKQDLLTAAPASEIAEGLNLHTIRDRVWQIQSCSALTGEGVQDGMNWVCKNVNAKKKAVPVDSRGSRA
Arl3-Y90C-FLAG (P36405, form named): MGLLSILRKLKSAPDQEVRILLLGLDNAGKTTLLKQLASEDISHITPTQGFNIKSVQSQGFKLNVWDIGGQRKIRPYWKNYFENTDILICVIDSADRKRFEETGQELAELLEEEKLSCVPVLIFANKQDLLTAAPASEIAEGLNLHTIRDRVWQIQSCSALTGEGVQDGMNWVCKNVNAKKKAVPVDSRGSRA
Arl3-T31N/Y90C-FLAG (P36405, form named): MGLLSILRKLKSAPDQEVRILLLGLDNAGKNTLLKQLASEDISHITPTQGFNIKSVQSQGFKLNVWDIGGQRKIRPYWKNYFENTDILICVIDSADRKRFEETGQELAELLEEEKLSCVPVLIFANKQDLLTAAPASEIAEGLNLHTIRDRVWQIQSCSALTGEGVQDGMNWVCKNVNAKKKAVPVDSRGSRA
Arl3-Y90C/R149H-FLAG (P36405, form named): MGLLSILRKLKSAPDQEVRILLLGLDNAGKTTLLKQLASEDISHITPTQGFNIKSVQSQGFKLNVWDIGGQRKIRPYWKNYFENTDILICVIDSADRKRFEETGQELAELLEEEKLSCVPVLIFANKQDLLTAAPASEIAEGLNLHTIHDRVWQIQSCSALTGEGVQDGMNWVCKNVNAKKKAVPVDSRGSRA
wild-type Arl3-FLAG (P36405, form named): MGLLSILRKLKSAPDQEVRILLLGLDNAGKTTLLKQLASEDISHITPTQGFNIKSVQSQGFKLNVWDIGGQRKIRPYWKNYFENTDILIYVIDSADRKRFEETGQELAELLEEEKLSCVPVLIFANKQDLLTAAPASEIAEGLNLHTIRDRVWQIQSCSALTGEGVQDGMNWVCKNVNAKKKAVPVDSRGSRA
UniProt Q640N2: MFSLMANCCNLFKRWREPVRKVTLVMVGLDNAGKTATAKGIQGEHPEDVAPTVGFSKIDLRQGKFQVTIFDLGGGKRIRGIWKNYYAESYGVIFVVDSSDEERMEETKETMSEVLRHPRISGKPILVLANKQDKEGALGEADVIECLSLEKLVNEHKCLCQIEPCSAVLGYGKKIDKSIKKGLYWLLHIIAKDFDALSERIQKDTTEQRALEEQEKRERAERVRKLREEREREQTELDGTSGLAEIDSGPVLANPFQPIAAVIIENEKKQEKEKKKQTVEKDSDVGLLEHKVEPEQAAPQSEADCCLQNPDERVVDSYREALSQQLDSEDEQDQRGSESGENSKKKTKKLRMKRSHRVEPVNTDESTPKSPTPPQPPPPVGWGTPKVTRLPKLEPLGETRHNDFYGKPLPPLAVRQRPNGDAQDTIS

How the values were obtained:
GST-PDEδ (human) [1] = target: GST-PDEδ (human) (UniProt O43924); test: pull-down; GST-PDEδ (50 µg) cross-linked with DSS to magnetic glutathione beads; cleared lysates of transfected AD-293 cells (20 mM Tris pH 7.5, 200 mM NaCl, 5 mM MgCl2, 0.5% Igepal), first incubated with GST beads, then 45 min at 4°C with GST-PDEδ beads; washed with Buffer M; immunoblot; only the target purified
GST-PDEδ (human) [2] = target: GST-PDEδ (human) (UniProt O43924); test: pull-down; as the GST-PDEδ pull-down, but lysate first incubated with 65 mM MgCl2 and 10 mM GTP (no EDTA), 30°C 15 min; immunoblot for Arl3; only the target purified
GST-PDEδ (human) [3] = target: GST-PDEδ (human) (UniProt O43924); test: pull-down; as the GST-PDEδ pull-down, but lysate first incubated with 10 mM EDTA and 10 mM GTP, 30°C 15 min, then MgCl2 added to 65 mM before the pull-down; immunoblot for Arl3; only the target purified
Arl3-Y90C-FLAG (human) [4] = target: Arl3-Y90C-FLAG (human) (UniProt P36405); test: cross-linking + co-IP; in-cell DSS cross-linking and FLAG immunoprecipitation from AD-293 cells co-expressing Arl13B-GFP with Arl3-FLAG constructs (also with Arl3-T31N-myc); immunoblot
[5] = target: Arl3-T31N/Y90C-FLAG (human) (UniProt P36405); test: as above
Arl3-T31N-FLAG (human) = Arl3-T31N-FLAG (human) (UniProt P36405); test: as above
[6] = target: Arl3-Y90C/R149H-FLAG (human) (UniProt P36405); test: co-IP; FLAG immunoprecipitation (magnetic FLAG beads, 2 hr 4°C, washes with 500 mM NaCl buffer, elution with 3X FLAG peptide) from lysates of AD-293 cells co-expressing Arl3-FLAG mutants and Arl13B-GFP or UNC119a-myc, not cross-linked; immunoblot
Arl3-Y90C-FLAG (human) [7] = target: Arl3-Y90C-FLAG (human) (UniProt P36405); test: as above
[8] = target: Arl3-T31N/Y90C-FLAG (human) (UniProt P36405); test: as above

| Substance | binding (GST-PDEδ (human) [1]) | binding (GST-PDEδ (human) [3]) | further results |
| --- | --- | --- | --- |
| Arl3-D67V-FLAG (from UniProt P36405 1-182) | binds |  |  |
| Arl3-D129N-FLAG (from UniProt P36405 1-182) |  | binds | binding (GST-PDEδ (human) [2]): binds |
| Arl3-Q71L-FLAG (from UniProt P36405 1-182) | binds |  |  |
| Arl3-T31N-FLAG (from UniProt P36405 1-182) | no binding |  |  |
| Arl3-Y90C-FLAG (from UniProt P36405 1-182) | no binding (condition: lysate without added GTP) | binds | binding (GST-PDEδ (human) [2]): binds |
| Arl13B-GFP (from UniProt Q640N2 1-427) |  |  | binding (Arl3-Y90C-FLAG (human) [4]): binds; binding [5]: binds; binding (Arl3-T31N-FLAG (human)): no binding; binding [6]: no binding; binding (Arl3-Y90C-FLAG (human) [7]): binds; binding [8]: binds |
| endogenous Arl3 (from UniProt P36405 1-182) |  | binds |  |
| wild-type Arl3-FLAG (from UniProt P36405 1-182) |  | binds |  |
